The list shows a part of the results. The energies were worked out here from pooled read counts, against the library average; single values are noisy.
Molecular target: T1, Pho4 (S. cerevisiae) (UniProt P07270)
T1 sequence: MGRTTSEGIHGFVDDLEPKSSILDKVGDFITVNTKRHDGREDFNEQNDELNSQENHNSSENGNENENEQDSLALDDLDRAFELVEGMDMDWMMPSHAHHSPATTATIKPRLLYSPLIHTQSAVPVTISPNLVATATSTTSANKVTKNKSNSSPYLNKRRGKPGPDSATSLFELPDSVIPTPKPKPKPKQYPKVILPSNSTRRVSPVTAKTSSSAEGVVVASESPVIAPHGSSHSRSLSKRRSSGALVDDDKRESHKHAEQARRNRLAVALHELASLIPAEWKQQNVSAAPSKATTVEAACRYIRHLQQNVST
Test: relative binding free energy (BET-seq); higher = weaker binding
Conditions: reference: library average

| Sequence | relative binding free energy [kcal/mol] |
| --- | --- |
| TTTATCACGTGATGTC | 0.15 |
| TGGGTCACGTGGGACG | -0.01 |
| TGTTGCACGTGATTAA | 0.13 |
| TTCCGCACGTGTGGTT | 0.1 |
| GGTGACACGTGTTAGT | 0.1 |
| AGAAGCACGTGAGATG | 0.28 |
| GCGCTCACGTGGGTGG | 0.12 |
| TGTAGCACGTGGTAGC | -0.18 |
| TTGTTCACGTGGAGAT | 0.22 |
| TGTCGCACGTGTTAGG | -0.01 |
| TATTTCACGTGCAGTT | 0.31 |
| ATTTGCACGTGCGGAG | 0.01 |
| GTTAACACGTGGTAGC | 0.14 |
| AGGCACACGTGGGGCG | -0.12 |
| GAAGGCACGTGGTGGA | -0.06 |
| GTAATCACGTGTGGCG | 0.17 |
| TGTGACACGTGTGAGC | 0.05 |
| GGGTGCACGTGGTCAA | -0.17 |
| TAATACACGTGTGGCT | 0.17 |
| TAAGGCACGTGAGAGT | 0.05 |
| GGGCCCACGTGTAGGG | 0.07 |
| AGTGTCACGTGTCGGG | 0.13 |
| AGTTGCACGTGGCGAT | -0.11 |

| Sequence | relative binding free energy [kcal/mol] |
| --- | --- |
| TTGTGCACGTGGTCTG | -0.03 |
| GGTGGCACGTGCTGAA | -0.09 |
| GTGGACACGTGGGGGG | -0.09 |
| TAATGCACGTGATATT | 0.02 |
| GCCGTCACGTGTTGGG | 0.17 |
| TCATTCACGTGGGGGT | 0.11 |
| TGAGACACGTGATGGT | 0 |
| TGCTTCACGTGTTATC | 0.22 |
| AAGTACACGTGGTATT | -0.14 |
| GAAGGCACGTGAGGGC | 0.14 |
| TGTTCCACGTGATGAT | 0.24 |
| TTGGACACGTGCATGT | -0.03 |
| TAGTTCACGTGCGTTC | 0.21 |
| TTACGCACGTGTTTTT | -0.05 |
| GGGGGCACGTGGCTAA | -0.28 |
| TGTAGCACGTGCGTGC | -0.29 |
| AAATTCACGTGTGGGC | 0.24 |
| ATTGACACGTGGTTGG | 0 |
| CGCGGCACGTGGAATG | 0.05 |
| CAACTCACGTGGGTGG | 0.13 |
| TTGCGCACGTGTGGGA | -0.18 |
| CTTTTCACGTGAAGGG | 0.35 |
| TTTTCCACGTGGGATT | 0.05 |

| Sequence | relative binding free energy [kcal/mol] |
| --- | --- |
| ATGCTCACGTGGTTGT | 0.21 |
| TATTTCACGTGGCTGC | 0.24 |
| GTAGGCACGTGTCATT | -0.11 |
| ATAATCACGTGGTATT | 0.03 |
| ACGTACACGTGATGTG | 0.22 |
| TAGGGCACGTGAGTAG | 0.09 |
| GTTTGCACGTGGTTTG | 0.09 |
| AGGCTCACGTGTTCGG | 0.22 |
| TTTTACACGTGGGATG | 0.15 |
| GATTTCACGTGCAGGG | 0.44 |
| GACGTCACGTGTGGTA | 0.11 |
| TAAGACACGTGCGTGG | 0.05 |
| AAGGGCACGTGGGACG | -0.22 |
| AGGTGCACGTGAATGT | 0.2 |
| AGGCTCACGTGAGTGG | 0.3 |
| TTTCACACGTGAATGG | 0.33 |
| GGTATCACGTGGGTTT | 0.2 |
| AGTGTCACGTGTATAA | 0.11 |
| CGGAACACGTGGGCGT | -0.09 |
| GTGATCACGTGTGTGG | 0.15 |
| GTGCGCACGTGGTATT | -0.21 |
| CATGGCACGTGGCGGG | -0.18 |
| AGGGTCACGTGATGGG | 0.23 |

| Sequence | relative binding free energy [kcal/mol] |
| --- | --- |
| GTCGGCACGTGGGGTC | -0.16 |
| CTGGGCACGTGGATTA | 0.03 |
| TAGGTCACGTGGCAGT | 0.06 |
| ATTTACACGTGTCAGG | 0.01 |
| GGGGTCACGTGCTCTG | 0.2 |
| GTGTTCACGTGCTGGG | 0.32 |
| ACTTTCACGTGTCAGG | 0.31 |
| GTTCGCACGTGATGTA | 0.17 |
| GCTTACACGTGGGGGG | 0.09 |
| CGGCGCACGTGAGCGG | 0.07 |
| TGGGTCACGTGATGCC | 0.28 |
| GTGCTCACGTGCAGGG | 0.1 |
| AGTCTCACGTGTAGGT | 0.06 |
| TTTGCCACGTGGTCGA | -0.13 |
| CTTGTCACGTGGAGCT | 0.11 |
| TAGAACACGTGGGATT | 0 |
| AGGGGCACGTGTCGGC | -0.22 |
| AGGGTCACGTGGCTCG | 0.06 |
| TTTGACACGTGAGCGT | 0.11 |
| GTAGTCACGTGGTAAT | 0.23 |
| CTTGGCACGTGGGGCC | -0.19 |
| CGTGGCACGTGGGTAG | -0.29 |
| AGCGTCACGTGGTATA | 0.1 |

| Sequence | relative binding free energy [kcal/mol] |
| --- | --- |
| AGTGGCACGTGTGGGC | 0.03 |
| AGTGGCACGTGGAGGT | -0.04 |
| CGTCACACGTGGGTGT | -0.13 |
| AAAGGCACGTGTGCTT | 0 |
| GTTAACACGTGCTGTG | -0.08 |
| GTATTCACGTGACTGT | 0.21 |
| TACGGCACGTGGGTAT | -0.24 |
| TAGGACACGTGGGGTC | -0.09 |
| TAAGACACGTGCGGTT | 0.03 |
| CTGTCCACGTGTTTGG | -0.02 |
| ATGGTCACGTGTGAGG | 0.11 |
| TGGTCCACGTGGACGG | 0.06 |
| AGCGTCACGTGGTTTA | -0.05 |
| AGTATCACGTGTGGGT | 0.14 |
| TGTGGCACGTGATAGT | 0.11 |
| GTGGGCACGTGATGAT | 0.12 |
| GGTATCACGTGGTCGG | 0.13 |
| AGTGTCACGTGTACGG | 0 |
| ATTGGCACGTGGTTGG | -0.12 |
| TGGTTCACGTGCGGTT | 0.3 |
| TGAGACACGTGTTAGA | 0 |
| GGGGGCACGTGGGGAT | -0.16 |
| GAGTGCACGTGATTGT | 0.12 |

Reference: the BET-seq Pho4 binding data (Le et al. 2018)
